B1: 12843B scFv (VK-VH) (scFv)
scFv: [about 100 residues left out here]TRLEIKGGGGSGGGGSGGGGSEVQLVESGGGLVQPGGSLRLSCAASGFTFNIFEMNWVRQAPGKGLEWISYISSRGTTTYYADSVRGRFTISRDNAKNSLYLQMNSLRAEDTAVYYCARDYEATIPFDFWGQGTLVTVSS
notes: CHO supernatant; Vk-3xG4S-Vh
B2: 12833B scFv (VH-VK) (scFv)
chain: QVQLVESGGGVVQPGRSLRLSCAASGFTFSSFGMHWVRQAPGKGLEWVIFISYDGSDKYYADSVKGRFAISRDSSKNTLYLQMNSLRAEDTAVYYCAKENGILTDSYGMDVWGQGTTVTVSS[about 100 residues left out here]
B3: 12844B scFv (VK-VH) (scFv)
scFv: [about 100 residues left out here]TRLEIKGGGGSGGGGSGGGGSEVQLVESGGSVVRPGGSLRLSCEASGFTFDDYGMSWVRQDPGKGLEWVSGINWNGDRTNYADSVKGRFIISRDNAKNSVYLQMNSLRAEDSALYHCARDQGLGVAATLDYWGQGTLVTVSS
notes: CHO supernatant; Vk-3xG4S-Vh
B4: 12841B scFv (VK-VH) (scFv)
scFv: [about 100 residues left out here]TRLEIKGGGGSGGGGSGGGGSEVQLVESGGGLVQPGGSLRLSCAASGFTFSNYWMNWVRQAPGKGLEWVANIKEDGGKKLYVDSVKGRFTISRDNAKNSLFLQMNSLRAEDTAVYYCAREDTTLVVDYYYYGMDVWGQGTTVTVSS
notes: CHO supernatant; Vk-3xG4S-Vh
B5: 12834B scFv (VK-VH) (scFv)
scFv: [about 100 residues left out here]TRLEIKGGGGSGGGGSGGGGSQVQLVQSGAEVKKPGASVKVSCKASGYTFTSYGISWVRQAPGQGLEWMGWISVYHGNTNYAQKFQGRVTMTTDTSTSTAYMELRSLRSDDTAVYYCAREGYYDFWSGYYPFDYWGQGTLVTVSS
notes: CHO supernatant; Vk-3xG4S-Vh
B6: 12845B scFv (VK-VH) (scFv)
scFv: [about 100 residues left out here]TRLEIKGGGGSGGGGSGGGGSEVQLVESGGGLVQPGGSLRLSCAASGFTVSNYEMNWVRQAPGKGLEWVSYISSSTSNIYYADSVKGRFTISRDNAENSLYLQMNSLRVEDTAVYYCVRDGIVVVPVGRGYYYYGLDVWGQGTTVTVSS
notes: CHO supernatant; Vk-3xG4S-Vh
B7: 12835B scFv (VK-VH) (scFv)
scFv: [about 100 residues left out here]TRLEIKGGGGSGGGGSGGGGSEVQLVESGGGLIQPGGSLRLSCEASGFTFRNYEMNWVRQAPGKGLEWVSYISSSGNMKDYAESVKGRFTISRDNVKNSLQLQMNSLRVEDTAVYYCARDEFPYGMDVWGQGTTVTVSS
notes: CHO supernatant; Vk-3xG4S-Vh
B8: 12844B scFv (VH-VK) (scFv)
chain: EVQLVESGGSVVRPGGSLRLSCEASGFTFDDYGMSWVRQDPGKGLEWVSGINWNGDRTNYADSVKGRFIISRDNAKNSVYLQMNSLRAEDSALYHCARDQGLGVAATLDYWGQGTLVTVSS[about 100 residues left out here]
B9: 12847B scFv (VK-VH) (scFv)
scFv: [about 100 residues left out here]TRLEIKGGGGSGGGGSGGGGSEVQLVESGGGLVQPGRSLRLSCAASGFTFDDYAMNWVRQAPGKGLEWVSGISWSSGSMDYADSVKGRFTISRDNAKNSLYLQMNSLRTEDTALYYCAKAREVGDYYGMDVWGQGTTVTVSS
notes: CHO supernatant; Vk-3xG4S-Vh
B10: 12847B scFv (VH-VK) (scFv)
scFv: EVQLVESGGGLVQPGRSLRLSCAASGFTFDDYAMNWVRQAPGKGLEWVSGISWSSGSMDYADSVKGRFTISRDNAKNSLYLQMNSLRTEDTALYYCAKAREVGDYYGMDVWGQGTTVTVSSGGGGSGGGGSGGGGS[about 100 residues left out here]
notes: CHO supernatant
B11: 12839B scFv (VK-VH) (scFv)
scFv: [about 100 residues left out here]TRLEIKGGGGSGGGGSGGGGSQVQLVESGGGVVQPGRSLRLSCAASGFPFSNYVMYWVRQAPGKGLEWVALIFFDGKKNYHADSVKGRFTITRDNSKNMLYLQMNSLRPEDAAVYYCAKIHCPNGVCYKGYYGMDVWGQGTTVTVSS
notes: CHO supernatant; Vk-3xG4S-Vh
B12: 12816B scFv (VH-VK) (scFv)
chain: QVQLVESGGGLVKPGGSLRLSCAASGFTFSDYYMNWIRQAPGKGLEWVSYISSSGTTIYYADSVKGRFTISRDNAKKSLYLEMNSLRAEDTAVYYCAREGYGNDYYYYGIDVWGQGTTVTVSS[about 120 residues left out here]
B13: 69261 scFv (VH-VK) (scFv)
chain: QVQLVESGGGLVKPGGSLRLSCAASGFTFSVYYMNWIRQAPGKGLEWVSYISSSGSTIYYADSVKGRFTISRDNAKNSLYLQMNSLRAEDTAVYYCGREGYSGTYSYYGMDVWGQGTTVTVSS[about 120 residues left out here]
B14: 12834B scFv (VH-VK) (scFv)
chain: QVQLVQSGAEVKKPGASVKVSCKASGYTFTSYGISWVRQAPGQGLEWMGWISVYHGNTNYAQKFQGRVTMTTDTSTSTAYMELRSLRSDDTAVYYCAREGYYDFWSGYYPFDYWGQGTLVTVSS[about 100 residues left out here]
B15: 12816B scFv (VK-VH) (scFv)
scFv: [about 120 residues left out here]GGGGSGGGGSGGGGSQVQLVESGGGLVKPGGSLRLSCAASGFTFSDYYMNWIRQAPGKGLEWVSYISSSGTTIYYADSVKGRFTISRDNAKKSLYLEMNSLRAEDTAVYYCAREGYGNDYYYYGIDVWGQGTTVTVSS
notes: CHO supernatant; Vk-3xG4S-Vh
B16: 69261 scFv (VK-VH) (scFv)
scFv: [about 120 residues left out here]GGGGSGGGGSGGGGSQVQLVESGGGLVKPGGSLRLSCAASGFTFSVYYMNWIRQAPGKGLEWVSYISSSGSTIYYADSVKGRFTISRDNAKNSLYLQMNSLRAEDTAVYYCGREGYSGTYSYYGMDVWGQGTTVTVSS
notes: CHO supernatant; Vk-3xG4S-Vh
B17: 12833B scFv (VK-VH) (scFv)
scFv: [about 100 residues left out here]TRLEIKGGGGSGGGGSGGGGSQVQLVESGGGVVQPGRSLRLSCAASGFTFSSFGMHWVRQAPGKGLEWVIFISYDGSDKYYADSVKGRFAISRDSSKNTLYLQMNSLRAEDTAVYYCAKENGILTDSYGMDVWGQGTTVTVSS
notes: CHO supernatant; Vk-3xG4S-Vh
B18: 69323 scFv (VK-VH) (scFv)
scFv: [about 100 residues left out here]GGGGSGGGGSGGGGSEVQLVESGGGLVQPGRSLRLSCAASGFTFDDYAMHWVRQAPGKGLEWVSGISWNSGYIGYADSVKGRFTISRDNAENSLHLQMNSLRAEDTALYYCARGGSTLVRGVKGGYYGMDVWGQGTTVTVSS
notes: CHO supernatant; Vk-3xG4S-Vh

From patent US20250049896A1 (Regeneron, published 2025) come the findings set out here.

The target in the experiment is T1, Hmm-hTFRC (REGN2431), monomeric human transferrin receptor ectodomain with N-terminal hexahistidine-myc-myc … (human, UniProt P02786).
T1 construct: also called hmm.hTfR(C89-F763); His-myc-myc-hTFRC ecto
T1 sequence (P02786 other isoform, or with tags, fused parts or gaps): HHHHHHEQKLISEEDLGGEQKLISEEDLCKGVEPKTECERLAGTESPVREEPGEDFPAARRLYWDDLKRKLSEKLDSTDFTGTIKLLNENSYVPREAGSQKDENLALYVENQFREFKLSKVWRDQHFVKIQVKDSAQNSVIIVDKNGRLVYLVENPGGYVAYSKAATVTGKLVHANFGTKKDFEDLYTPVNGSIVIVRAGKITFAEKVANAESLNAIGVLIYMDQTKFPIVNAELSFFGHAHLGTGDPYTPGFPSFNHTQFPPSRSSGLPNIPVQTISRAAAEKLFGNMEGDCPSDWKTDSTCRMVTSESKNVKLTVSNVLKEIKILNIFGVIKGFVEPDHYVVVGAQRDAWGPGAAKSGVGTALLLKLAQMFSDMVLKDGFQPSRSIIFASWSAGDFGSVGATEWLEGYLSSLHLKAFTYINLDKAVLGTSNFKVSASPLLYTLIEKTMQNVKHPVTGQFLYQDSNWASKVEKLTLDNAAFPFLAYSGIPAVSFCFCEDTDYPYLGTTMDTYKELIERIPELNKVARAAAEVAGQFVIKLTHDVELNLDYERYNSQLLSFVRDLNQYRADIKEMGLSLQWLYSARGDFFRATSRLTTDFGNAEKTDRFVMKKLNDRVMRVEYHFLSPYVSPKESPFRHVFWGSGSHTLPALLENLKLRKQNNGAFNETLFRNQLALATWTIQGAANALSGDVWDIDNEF
Nature of the experiment: blocking ELISA, supernatant; Hmm-hTFRC binding to immobilized human holo-Tf. Here is the method: In the blocking assay, the anti-human Transferrin goat IgG polyclonal antibody (anti-hTf pAb) was passively absorbed at a concentration of 2 micrograms/mL in PBS on a 96-well microtiter plate overnight at 4° C. […] To the same plate, human holo-Tf was then added at a concentration of 1 micrograms/mL in PBS+0.5% BSA for 2 hours at room temperature. […] After a 1-hour incubation, the mixtures were transferred to the human holo-Tf microtiter plates. […] The plates were developed using TMB substrate solution according to the manufacturer's recommended procedure and absorbance at 450 nm was measured on a Victor™ Multilabel Plate Reader.
The ability of the anti-TfR antibody to block human TFRC binding to human holo-Tf was evaluated using an ELISA-based blocking assay.
With B1, the “% Blocking” value was determined as 8%.
For the molecule B2, the “% Blocking” value came out at 22%.
With B3, the “% Blocking” value is 10%.
Turning to B4, the “% Blocking” value was 1%.
B5: the “% Blocking” value is 11%.
As for B6, the “% Blocking” value stood at 3%.
On to B7, for which the “% Blocking” value was found to be 37%.
B8: the “% Blocking” value was 12%.
With B9 the figure was 13%; with B10, 11%.
The result for B11 reads 6%; that for B12, 16%; that for B13, 19%.
Turning to B14, the “% Blocking” value is -3%.
With B15 the figure was 14%; with B16, 16%; with B17, 40%.
As for B18, the “% Blocking” value was 17%.
